The supplement of paper PMC8728848
Some of the results follow.

What was measured:
Test in all cases: glycan array binding signal (z-score within array); higher = stronger binding
Conditions in all cases: glycan notation: IUPAC condensed, linker removed
[1] = biological target: Fuc(a1-2)Gal
Outline: (§1)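 Glycan array data came from 3228 arrays in the Consortium for Functional Glycomics database, and only arrays with an available protein sequence were kept. Glycan names were put into IUPAC-condensed notation, and columns mapping to the same glycan were averaged. The binding signal is a within-array Z-score, averaged across arrays of one protein sequence run at different concentrations or buffers and across linkers. A negative Z-score can be read as non-binding.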

[2] = biological target: Fuc(a1-2)Gal(b1-3)GalNAc
Outline: as §1

[3] = biological target: Fuc(a1-2)Gal(b1-3)GalNAc(b1-3)Gal
Outline: as §1

[4] = biological target: Fuc(a1-2)Gal(b1-3)GalNAc(b1-3)Gal(a1-4)Gal(b1-4)Glc
Outline: as §1

[5] = biological target: Fuc(a1-2)Gal(b1-3)GalNAc(b1-4)[Neu5Ac(a2-3)]Gal(b1-4)Glc
Outline: as §1

[6] = biological target: Fuc(a1-2)Gal(b1-3)GlcNAc
Outline: as §1

[7] = biological target: Fuc(a1-2)Gal(b1-3)GlcNAc(b1-3)Gal(b1-4)Glc
Outline: as §1

[8] = biological target: Fuc(a1-2)Gal(b1-3)[Fuc(a1-4)]GlcNAc
Outline: as §1

[9] = biological target: Fuc(a1-2)Gal(b1-4)Glc
Outline: as §1

[10] = biological target: Fuc(a1-2)Gal(b1-4)GlcNAc
Outline: as §1

[11] = biological target: Fuc(a1-2)Gal(b1-4)GlcNAc(b1-3)Gal(b1-4)GlcNAc
Outline: as §1

[12] = biological target: Fuc(a1-2)Gal(b1-4)GlcNAc(b1-3)Gal(b1-4)GlcNAc(b1-3)Gal(b1-4)GlcNAc
Outline: as §1

[13] = biological target: Fuc(a1-2)Gal(b1-4)[Fuc(a1-3)]GlcNAc
Outline: as §1

[14] = biological target: Fuc(a1-2)Gal(b1-4)[Fuc(a1-3)]GlcNAc(b1-3)Gal(b1-4)[Fuc(a1-3)]GlcNAc
Outline: as §1

[15] = biological target: Fuc(a1-2)Gal(b1-4)[Fuc(a1-3)]GlcNAc(b1-3)Gal(b1-4)[Fuc(a1-3)]GlcNAc(b1-3)Gal(b1-4)[Fuc(a1-3)]GlcNAc
Outline: as §1

[16] = biological target: Fuc(a1-2)GlcNAc
Outline: as §1

[17] = biological target: Fuc(a1-2)[Gal(a1-3)]Gal
Outline: as §1

[18] = biological target: Fuc(a1-2)[Gal(a1-3)]Gal(b1-3)GlcNAc
Outline: as §1

[19] = biological target: Fuc(a1-2)[Gal(a1-3)]Gal(b1-4)Glc
Outline: as §1

[20] = biological target: Fuc(a1-2)[Gal(a1-3)]Gal(b1-4)GlcNAc
Outline: as §1

[21] = biological target: Fuc(a1-2)[Gal(a1-3)]Gal(b1-4)[Fuc(a1-3)]GlcNAc
Outline: as §1

[22] = biological target: Fuc(a1-2)[Gal(a1-4)]Gal(b1-4)GlcNAc
Outline: as §1

[23] = biological target: Fuc(a1-2)[GalNAc(a1-3)]Gal
Outline: as §1

[24] = biological target: Fuc(a1-2)[GalNAc(a1-3)]Gal(b1-3)GlcNAc
Outline: as §1

[25] = biological target: Fuc(a1-2)[GalNAc(a1-3)]Gal(b1-4)Glc
Outline: as §1

[26] = biological target: Fuc(a1-2)[GalNAc(a1-3)]Gal(b1-4)GlcNAc
Outline: as §1

[27] = biological target: Fuc(a1-2)[GalNAc(a1-3)]Gal(b1-4)[Fuc(a1-3)]GlcNAc
Outline: as §1

[28] = biological target: Fuc(a1-2)[GalNAc(a1-4)]Gal(b1-4)GlcNAc
Outline: as §1

[29] = biological target: Fuc(a1-2)[GalNAc(b1-3)]Gal
Outline: as §1

[30] = biological target: Fuc(a1-3)GlcNAc
Outline: as §1

[31] = biological target: Fuc(a1-3)[Gal(b1-4)]GlcNAc
Outline: as §1

[32] = biological target: Fuc(a1-3)[Gal(b1-4)]GlcNAc(b1-4)Gal(b1-4)[Fuc(a1-3)]GlcNAc
Outline: as §1

[33] = biological target: Fuc(a1-3)[Gal(b1-4)]GlcNAc(b1-4)Gal(b1-4)[Fuc(a1-3)]GlcNAc(b1-4)Gal(b1-4)[Fuc(a1-3)]GlcNAc
Outline: as §1

[34] = biological target: Fuc(a1-3)[Gal3S(b1-4)]GlcNAc
Outline: as §1

[35] = biological target: Fuc(a1-3)[GalNAc(b1-4)]GlcNAc
Outline: as §1

[36] = biological target: Fuc(a1-4)GlcNAc
Outline: as §1

[37] = biological target: Fuc(b1-3)GlcNAc
Outline: as §1

[38] = biological target: Gal(a1-2)Gal
Outline: as §1

[39] = biological target: Gal(a1-3)Gal
Outline: as §1

[40] = biological target: Gal(a1-3)Gal(b1-3)GlcNAc
Outline: as §1

[41] = biological target: Gal(a1-3)Gal(b1-4)Glc
Outline: as §1

[42] = biological target: Gal(a1-3)Gal(b1-4)GlcNAc
Outline: as §1

[43] = biological target: Gal(a1-3)Gal(b1-4)[Fuc(a1-3)]GlcNAc
Outline: as §1

[44] = biological target: Gal(a1-3)GalNAc
Outline: as §1

[45] = biological target: Gal(a1-3)[Gal(a1-4)]Gal(b1-4)GlcNAc
Outline: as §1

B1: LKPARMA (Neurospora crassa) (protein)
chain: MSFHVTAEDARRIEVRDNRTILFARLRREDGEWNDASYELDQIIGNNDGHFQWGGGQNFTETAEDIRFHPKEGAAEQPILRARLRDCNGEFHDRDVNLTEIVENVNGEFQAKF
glycan array binding signal (z-score) [1]: -0.25 | glycan array binding signal (z-score) [2]: -0.249 | glycan array binding signal (z-score) [3]: -0.252 | glycan array binding signal (z-score) [4]: -0.175 | glycan array binding signal (z-score) [5]: -0.18 | glycan array binding signal (z-score) [6]: -0.25 | glycan array binding signal (z-score) [7]: 4.48 | glycan array binding signal (z-score) [8]: -0.252 | glycan array binding signal (z-score) [9]: -0.249 | glycan array binding signal (z-score) [10]: -0.249 | glycan array binding signal (z-score) [11]: -0.249 | glycan array binding signal (z-score) [12]: -0.205 | glycan array binding signal (z-score) [13]: -0.07 | glycan array binding signal (z-score) [14]: -0.238 | glycan array binding signal (z-score) [15]: -0.14 | glycan array binding signal (z-score) [16]: -0.249 | glycan array binding signal (z-score) [17]: -0.247 | glycan array binding signal (z-score) [18]: -0.249 | glycan array binding signal (z-score) [19]: -0.251 | glycan array binding signal (z-score) [20]: -0.252 | glycan array binding signal (z-score) [21]: -0.06 | glycan array binding signal (z-score) [22]: -0.239 | glycan array binding signal (z-score) [23]: -0.247 | glycan array binding signal (z-score) [24]: -0.251 | glycan array binding signal (z-score) [25]: -0.246 | glycan array binding signal (z-score) [26]: -0.252 | glycan array binding signal (z-score) [27]: -0.246 | glycan array binding signal (z-score) [28]: -0.133 | glycan array binding signal (z-score) [29]: -0.241 | glycan array binding signal (z-score) [30]: -0.165 | glycan array binding signal (z-score) [31]: -0.248 | glycan array binding signal (z-score) [32]: -0.077 | glycan array binding signal (z-score) [33]: -0.232 | glycan array binding signal (z-score) [34]: -0.239 | glycan array binding signal (z-score) [35]: -0.247 | glycan array binding signal (z-score) [36]: -0.246 | glycan array binding signal (z-score) [37]: -0.251 | glycan array binding signal (z-score) [38]: -0.249 | glycan array binding signal (z-score) [39]: -0.223 | glycan array binding signal (z-score) [40]: -0.252 | glycan array binding signal (z-score) [41]: -0.25 | glycan array binding signal (z-score) [42]: -0.249 | glycan array binding signal (z-score) [43]: -0.251 | glycan array binding signal (z-score) [44]: -0.248 | glycan array binding signal (z-score) [45]: -0.245
